Test results taken from ChEMBL document CHEMBL1157539, “Thousands of chemical starting points for antimalarial lead identification” (Nature, 2010).
Values joined by “and” are separate entries in the source; they are usually repeats but may differ in a detail not shown here. Equal values may be shown once. In all, about 13,000 compounds were measured (“IFI”: median about 4, highest 2% from about 17 on). The list shows a part of the results.

Experiment: GSK_TCMDC: Inhibition Frequency Index (IFI). The number of non-kinase HTS assays where a compound showed > 50 % inhibition, expressed as a percentage of the number of such assays in which the compound was tested (-0 is zero)
Format: functional

| SMILES | IFI |
| --- | --- |
| CC(C)=CC1C(C(=O)n2c(=N)[nH]c3ccccc32)C1(C)C (stereo not given) | 2.29% |
| CC(C)C[C@H](Nc1ccnc(NCC2CCCCC2)n1)C(=O)Nc1ccccc1 | 13.3% |
| FC(F)(F)c1ccc2[nH]c(-c3ccc(-c4cccc(CN5CCCCC5)c4)cc3)nc2c1 | 2.82% |
| CC(C)c1ncc(-c2ccncc2)c(C2CCC(CNC(=O)c3cccnc3)CC2)n1 (stereo not given) | 0% |
| CC[C@H](C)CNC(=O)c1cncc(-c2ccc(CNC3Cc4ccccc4C3)cc2)c1 | 6.45% |
| CCC(C)(C)C1CCc2nc(N)nc(N)c2C1 (stereo not given) | 4.08% |
| Cc1nc2sccn2c1C(=O)NCCc1ccccc1Cl | 2.38% |
| COc1cccc2[nH]c(NCCCNCc3cc(Br)cc(Br)c3)nc12 | 2.99% |
| Cc1cc(N[C@@H](Cc2ccccc2)C(=O)NC2CCCC2)nc(NCc2ccccc2C)n1 | 4.88% |
| CCC(C)c1ccc(NC(=O)C(C)c2ccc([N+](=O)[O-])cc2)cc1 (stereo not given) | 23.7% |
| Cc1ccc(NC(=O)c2ccc3ncccc3c2)cc1OC1CCN(C(C)C)C1 (stereo not given) | 1.52% |
| CC(CN(C)C)C(=O)Nc1ccc(-c2ccc(-c3nc4cc(C(F)(F)F)ccc4[nH]3)cc2)cc1 (stereo not given) | 3.6% |
| CCC[C@@H]([C@@H](CC1CCCCC1)C(=O)N[C@H](C(=O)Nc1nccs1)[C@H](C)O)N(O)C=O | 2.38% |
| COc1ccccc1CCCON1C(=N)N=C(N)NC1(C)C | 6.02% |
| CCn1cc(C(=O)O)c(=O)c2cc(F)c(N3CCN(S(=O)(=O)c4ccc(N)cc4)CC3)cc21 | 1.41% |
| COc1ccc(S(=O)(=O)N(CCCN2CCN(C)CC2)Cc2csc(-c3ccc(CNCc4ccccc4)cc3)n2)cc1 | 4.83% |
| O=S(=O)(c1c(Cl)cc(Cl)cc1Cl)N1CCCCC(c2ccc(Cl)cc2)=N1 | 0.78% |
| O=C(Nc1ccc(CN2CCOCC2)cc1)c1ccc(-c2ccc(Cl)cc2)o1 | 2.78% |
| CCc1cn2c3c(cc(C(=O)N[C@@H](Cc4ccccc4)[C@H](O)CNC4CCCC4)cc13)N(C)S(=O)(=O)CC2 | 2.92% |
| CC(C)c1cccc(C(NC(=O)[C@H]2Cc3ccccc3CN2C(=O)c2cccc(N3CCOCC3)c2)C2CCCC2)c1 (stereo not given in full) | 6.42% |
| C#CCNCc1ccc(-c2ccc(-c3nc4cc(C(F)(F)F)ccc4[nH]3)s2)cc1 | 8.82% |
| COc1ccc2nccc([C@@H](O)CN3CCC(NCc4ccc5c(c4)NC(=O)C(C)S5)CC3)c2c1 (stereo not given in full) | 0.74% |
| COc1ccc2nccc([C@@H](O)CN3CCC(NCC(=O)Nc4cc(F)cc(F)c4)CC3)c2n1 | 3.65% |

| SMILES | IFI |
| --- | --- |
| COc1cc2nc(N3CCC(CNC(=O)c4ccc(-c5ccc(-c6noc(C)n6)cc5)cc4)CC3)nc(N)c2cc1OC | 7.27% |
| O[C@@H](c1cc(C(F)(F)F)nc2c(C(F)(F)F)cccc12)[C@H]1CCCCN1 | 5.8% and 5.07% |
| Nc1nccc2ccc(-c3ccc(NC(=O)Nc4cc(C(F)(F)F)ccc4F)cc3)cc12 | 20.2% |
| CN(C)CCOc1ccc2c(c1)CN(C)CC2c1ccccc1 (stereo not given) | -0% |
| N=C(NC1CC1)c1ccc2[nH]c(CCCCCc3nc4cc(C(=N)NC5CC5)ccc4[nH]3)nc2c1 | -0% |
| COc1ccc2nccc([C@@H](O)CN3CCC(NCc4cc5cc(C)ccc5s4)CC3)c2c1 | 2.16% |
| COc1cccc(Nc2nc(C)cc(NC3CCN(Cc4ccccc4)CC3)n2)c1 | 1.52% |
| c1ccc(COc2ccccc2COc2ccccc2-c2ccc3cccnc3n2)cc1 | 7.84% |
| O=C(NC1CCN(Cc2ccccc2)CC1)c1ccc(-c2nc3cc4ccccc4cc3[nH]2)s1 | 2.92% |
| Cc1cc(N[C@@H](Cc2ccccc2)C(=O)Nc2ccccc2)nc(NCCc2ccccc2)n1 | 12.2% |
| COc1cccc(C(=O)Nc2ccc(Oc3ccc(Cl)cc3)cc2)c1 | 4.93% |
| O=C(Cc1ccccc1)NC(CCN1CCC(O)(c2cccc(C(F)(F)F)c2)CC1)c1ccc(Cl)c(Cl)c1 (stereo not given) | 7.48% |
| CCC(C)CN1CCN(c2ccc(NC(=O)c3cccs3)cc2)CC1C (stereo not given) | 2.86% |
| CCCCOc1c(CNCCCCCCNCc2ccc3ccccc3c2OCCCC)ccc2ccccc12 | 16.6% |
| CNC(=O)c1cc(Nc2nnc(-c3ccc(C)c(S(=O)(=O)NC4CCCCC4)c3)c3ccccc23)ccc1OC | 4.11% |
| CCCCN1CCN(Cc2cccc(NC(=O)c3ccc(Cl)c(Cl)c3)c2)CC1 | 3.36% |
| COc1ccc2nccc(N3CCC(SCCNS(=O)(=O)c4ccc5c(c4)NC(=O)CS5)C3)c2n1 (stereo not given) | 8.87% |
| CC(C)C[C@H](Nc1ccnc(NCC2CCCCC2)n1)C(=O)NCCOc1ccccc1 | 13% |
| CCC(C)C#Cc1c(C)nc(N)nc1N (stereo not given) | 2.22% |
| O=C(NC1CCN(Cc2cccc(C(F)(F)F)c2)CC1)c1ccc(-c2cccc(C(F)(F)F)c2)s1 | 12.7% |
| COc1ccc(Cl)cc1NC(=O)C(C)N1CCN(S(=O)(=O)c2ccccc2F)CC1 (stereo not given) | 0.78% |
| COc1ccc2nccc([C@@H](O)CN3CCC(NCc4ccc5cccc(O)c5n4)CC3)c2c1 | 8.76% |
| N=C(N)c1ccc(Nc2nccc(Nc3nc(-c4ccccc4)cs3)n2)cc1 | 5.22% |

| SMILES | IFI |
| --- | --- |
| CNc1c2c(nc3ccc(NC(=O)CCCCCCc4ccccc4)cc13)CCCC2 | 5.67% |
| Cc1ccc2nc(C)cc(NC(=O)Nc3ccc(N(C)C)cc3)c2c1 | 3.68% |
| O=C(NC1CCN(c2ccnc3cc(Cl)ccc23)C1)c1ccc(F)cc1F (stereo not given) | 1.54% |
| Cc1cc2nc(N=C3NC4(c5ccccn5)NC(=Nc5nc6cc(C)c(C)cc6[nH]5)NC4(c4ccccn4)N3)[nH]c2cc1C (stereo not given) | 3.68% |
| CCCCCCC(C)c1cc(O)c2c(c1)OC(C)(C)C=C2c1ccncc1 (stereo not given) | 0.72% |
| Cc1n[nH]c2ccc(-c3cc(OC[C@@H](N)Cc4ccccc4)cnc3-c3cc4ccccc4s3)cc12 | 10.9% |
| CCN(CC)CCOC(=O)c1ccc(NC(=O)c2cn(-c3ccccc3)nc2-c2cccs2)cc1 | 1.48% |
| C[C@H](Cc1ccc(OCCCOc2ccc(C[C@@H](C)NC[C@H](O)c3cccc(Cl)c3)cc2)cc1)NC[C@H](O)c1cccc(Cl)c1 | 13.1% |
| Cc1[nH]cnc1CSCCNC(=N)NCCCCCCCCNC(=N)NCCSCc1nc[nH]c1C | 3.76% |
| CCCc1cc(Cc2cnc(N)nc2N)ccc1OCCCCCC(=O)OCC | 2.16% |
| O=C(Nc1cccc(OC2CCN(Cc3ccccc3)CC2)c1)Nc1cccc([N+](=O)[O-])c1 | 2.92% |
| CCCCOC(=O)c1ccc(NC(=O)Nc2ccc(Cn3ncc(N4CCCNCC4)c(Cl)c3=O)cc2)cc1 | 5.97% |
| CCc1ccc(CNCC(CCNc2cc(=O)c3ccccc3[nH]2)NCc2cc(Br)cc(Br)c2)o1 (stereo not given) | 8.03% |
| CCNCc1ccc(-c2cc3ncnc(Nc4ccc(OCc5cccc(F)c5)c(Cl)c4)c3s2)[nH]1 | 7.87% |
| O=C(NCc1ccc(C(=O)NCc2cccc3ccccc23)cc1)c1ccc(O)c(-c2ccc(Cl)c(Cl)c2)c1 | 0.74% |
| CCN(CCCN1CCCCC1)c1cc(C)nc(Nc2ccc(Br)cc2F)n1 | 3.75% |
| O=C(Nc1ccc(Cl)c(C(F)(F)F)c1)c1ccc(C(=O)Nc2ccc(Cl)c(C(F)(F)F)c2)cc1 | 2.76% |
| CCN(CC)S(=O)(=O)c1ccc(CCOCCCCCNCC(O)c2cc(Cl)c(N)c(Cl)c2)s1 (stereo not given) | 14.8% |
| OCC1CCN(Cc2cccc(C#Cc3cc4ncnc(Nc5ccc(OCc6cccc(F)c6)c(Cl)c5)c4s3)n2)CC1 | 6.3% |
| COc1cccc(C=Cc2nc(=O)c3ccccc3o2)c1OC | 1.5% |
| O=C(Nc1ccc2c(c1)CCC2)c1ccc(N2CCN(c3ccncc3)CC2)cn1 | 13% |
| CC(ON1C(N)=NC(N)=NC1(C)C)c1ccccc1 (stereo not given) | 2.14% |
| CCNc1cc(C(=O)NC(Cc2ccccc2)C(O)CNC(C)(C)CCCC(C)C)c(F)c(N2CCCS2(=O)=O)c1 (stereo not given) | 2.16% |

| SMILES | IFI |
| --- | --- |
| O=C(Nc1ccc(-c2ccccc2)cc1)Nc1cccc(Cn2cnc(N3CCCNCC3)cc2=O)c1 | 3.6% |
| O=C(/C=C/c1ccc(Cl)c(Cl)c1)N1CCC(CN2CCC(Cc3cc4ccccc4[nH]3)CC2)CC1 | 11.4% |
| Clc1cccc(C=NNc2nc(=Nc3ccccc3)[nH]c(=Nc3ccccc3)[nH]2)c1 | 1.46% |
| N#Cc1ccc(NC(=O)Nc2ccc(OC(F)(F)F)cc2)cc1 | 20.5% |
| CN(Cc1cccc(O)c1)C1CCN(c2cc(NC(=O)c3ccc(F)cc3)ccn2)C1 (stereo not given) | 2.63% |
| CCCc1ccc(NC(=O)c2ccc(CN3CCCN(Cc4cccc(O)c4)CC3)cc2)cc1 | 13.8% |
| Cc1ccc(C)c2sc(N(CCCn3ccnc3)C(=O)c3ccco3)nc12 | 6.12% |
| CC(=O)Nc1cccc(NC(=O)CSc2ccc(-c3nc4ccccc4[nH]3)cn2)c1 | 5% |
| O=C(c1cc2c(s1)-c1cccc(Cl)c1SC2)N1CCN(c2ccncc2)CC1 | 6.82% |
| CNC(=O)C1Cc2c([nH]c3c(C)cccc23)C2(N1)C(=O)Nc1ccc(OC(F)(F)F)cc12 (stereo not given) | 0.75% |
| O=C(O)/C=C/c1cccc(F)c1F | 2.16% |
| COc1cc(Cc2cnc(N)nc2N)cc(OCCCC#N)c1OC | 0.75% |
| O=[N+]([O-])c1cccc(CNCC2CCN(Cc3ccc(O)cc3)CC2)c1 | -0% |
| CCOc1c(CNCCCNc2cc(O)c3ccccc3n2)cc(I)cc1OC | 3.55% |
| Cc1nc(Cl)c2c(-c3ccccc3)csc2n1 | 3.57% |
| CN1CCN(c2ccc(Nc3ccnc4ccc(-c5ccccc5)cc34)cc2)CC1 | 6.43% |
| COc1ccc2nccc([C@@H](O)CN3CCC(NC(=O)C(=O)c4c[nH]c5c(C)cccc45)CC3)c2c1 | 3.73% |
| CN(C)CCOc1ccc(-n2c(-c3nonc3N)nc3cncc(-c4ccc(F)cc4)c32)cc1 | 3.55% |
| N#CCOc1c(C2CCN(CCCCNC(=O)c3ccc(-c4ccc(C(F)(F)F)cc4)cc3)CC2)ccc2c1CCCC2 | 7.08% |
| COc1ccc2cc(-c3nc(-c4c(Cl)cccc4Cl)[nH]c3-c3ccnc(NCCC4CCCN4C)c3)ccc2c1 (stereo not given) | 11.3% |
| O=C(Nc1ccc(Cl)cc1)c1ccc(CN2CCCN(Cc3cccc(O)c3)CC2)cc1 | 11% |
